Tested on: male wistar rats
Test: Toxicity test, oral administration for four days
Conditions: 100 mg/kg/day orally for four days

## O=c1c(Cc2cccnc2)cn2c3cc(Br)ccc3c3cc(O)cc1c32 [Example 31, 9-bromo-2-hydroxy-5-(3-pyridylmethyl)-4H-pyrido[3,2,1-jk]carbazol-4-one]
  abnormal change in body weight and general symptoms: no abnormal change
Until the next morning of the completion of the administration
  dead case: no dead case

— patent EP0992240A1, “THERAPEUTIC AGENT FOR ERECTION FAILURE” (MOCHIDA PHARMACEUTICAL CO., LTD., priority 1997, dated 1998)
